# Reference: the BET-seq Pho4 binding data (Le et al. 2018)
# The list shows a part of the results. The energies were worked out here from pooled read counts, against the library average; single values are noisy.
# Biological target: T1, Pho4 (S. cerevisiae) (UniProt P07270)
# T1 sequence: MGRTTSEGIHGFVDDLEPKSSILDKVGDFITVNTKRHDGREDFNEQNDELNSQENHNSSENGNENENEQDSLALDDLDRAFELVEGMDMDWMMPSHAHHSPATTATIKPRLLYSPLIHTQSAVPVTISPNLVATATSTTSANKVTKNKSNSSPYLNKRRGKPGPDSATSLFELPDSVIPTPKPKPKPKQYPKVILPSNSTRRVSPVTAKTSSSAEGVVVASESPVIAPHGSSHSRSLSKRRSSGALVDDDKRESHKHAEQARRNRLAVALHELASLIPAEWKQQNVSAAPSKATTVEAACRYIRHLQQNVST
# Experiment: relative binding free energy (BET-seq); higher = weaker binding
# Details: reference: library average
row,Sequence,relative binding free energy
1,TGCGGCACGTGGCGTT,-0.11 kcal/mol
2,GTTGTCACGTGTTCTT,0.31 kcal/mol
3,AGGTCCACGTGGTGTA,-0.19 kcal/mol
4,TTATCCACGTGTTTTG,0.05 kcal/mol
5,ATTATCACGTGAGAGT,0.28 kcal/mol
6,TTTATCACGTGTGTAC,0.07 kcal/mol
7,TGAGACACGTGTGGTA,0.01 kcal/mol
8,CTTTTCACGTGGTGAG,0.11 kcal/mol
9,AGGCGCACGTGATGTT,0.14 kcal/mol
10,TTCGTCACGTGAAGGG,0.24 kcal/mol
11,ATGATCACGTGGGGCA,0.08 kcal/mol
12,TCTAGCACGTGTGTTT,-0.03 kcal/mol
13,TGGTTCACGTGGCGAC,0.2 kcal/mol
14,AGTAGCACGTGGCAGT,-0.12 kcal/mol
15,GCTATCACGTGTTTTG,0.13 kcal/mol
16,TAAGACACGTGATGGT,0.19 kcal/mol
17,GGGGGCACGTGTTTCA,-0.1 kcal/mol
18,TATGACACGTGTTAGT,-0.03 kcal/mol
19,CAGATCACGTGTGAGG,0.21 kcal/mol
20,AGGCGCACGTGGTGAT,-0.05 kcal/mol
21,CTAGTCACGTGGGGGC,0 kcal/mol
22,TTAGTCACGTGTAGAA,0.21 kcal/mol
23,TTGGGCACGTGAGTAA,0.19 kcal/mol
24,TTATGCACGTGCTATA,-0.02 kcal/mol
25,TGCGGCACGTGGTGCG,-0.25 kcal/mol
26,TAATTCACGTGACGTT,0.33 kcal/mol

row,Sequence,relative binding free energy
1,TAATGCACGTGAGCGT,0.13 kcal/mol
2,TCGATCACGTGTGAGG,0.17 kcal/mol
3,AGAGGCACGTGGAGTG,-0.15 kcal/mol
4,TTTGGCACGTGGTTAG,-0.13 kcal/mol
5,TGTAGCACGTGGCTTT,-0.25 kcal/mol
6,TTCGGCACGTGGTCTG,-0.12 kcal/mol
7,TGCTTCACGTGAAGGG,0.37 kcal/mol
8,GTGCGCACGTGGTTTA,-0.06 kcal/mol
9,CTGTACACGTGGGAGT,0.08 kcal/mol
10,GGGGCCACGTGTGGGC,0.02 kcal/mol
11,AGTACCACGTGGGAGT,-0.08 kcal/mol
12,GAATGCACGTGGCGGG,0 kcal/mol
13,CGGTGCACGTGGTGTT,-0.19 kcal/mol
14,CGATTCACGTGCGGTT,0.18 kcal/mol
15,CTGTGCACGTGTAGGG,-0.03 kcal/mol
16,GTTCACACGTGTGGGC,0.22 kcal/mol
17,TGCTTCACGTGTTTCT,0.27 kcal/mol
18,GTCGACACGTGGGGCG,-0.12 kcal/mol
19,GGTGTCACGTGAAGCG,0.25 kcal/mol
20,TGCAGCACGTGCTTGG,-0.12 kcal/mol
21,GTGCGCACGTGGGTAT,-0.19 kcal/mol
22,GGGGGCACGTGTTATC,0.01 kcal/mol
23,TGCGTCACGTGTGAAT,0.22 kcal/mol
24,TTATTCACGTGTAAAG,0.4 kcal/mol
25,TTTCCCACGTGGTTTG,-0.09 kcal/mol
26,TGTGGCACGTGTGAGC,-0.01 kcal/mol

row,Sequence,relative binding free energy
1,TGCGGCACGTGATATT,0 kcal/mol
2,AGTGGCACGTGCGGGC,-0.16 kcal/mol
3,ATGGTCACGTGGTGTG,0 kcal/mol
4,GTTGTCACGTGTGTGC,0.28 kcal/mol
5,GGTGACACGTGAAGGC,0.43 kcal/mol
6,TTCACCACGTGTTTTG,0.09 kcal/mol
7,TTGAGCACGTGCAGTT,-0.04 kcal/mol
8,TTGGCCACGTGTATTA,-0.03 kcal/mol
9,ATTGGCACGTGACGAT,0.13 kcal/mol
10,GGGAGCACGTGTTAGG,-0.12 kcal/mol
11,GGTGTCACGTGTGACG,0.2 kcal/mol
12,ATGTTCACGTGTGGCC,0.23 kcal/mol
13,TGGGACACGTGGTGTG,-0.06 kcal/mol
14,GGCATCACGTGTTGTA,0.09 kcal/mol
15,GTTAGCACGTGTATGT,0 kcal/mol
16,GGGGTCACGTGATTGG,0.32 kcal/mol
17,ACGGGCACGTGCGGTT,-0.12 kcal/mol
18,AAAGGCACGTGGGGAT,-0.08 kcal/mol
19,CTTTTCACGTGGGCGG,0.22 kcal/mol
20,TTTCGCACGTGGTGGT,-0.16 kcal/mol
21,GTGGGCACGTGCGTGT,-0.11 kcal/mol
22,ACGGGCACGTGTGGTA,-0.2 kcal/mol
23,ATGGTCACGTGAGGAT,0.36 kcal/mol
24,AGTGGCACGTGATTAA,0.16 kcal/mol
25,CATTTCACGTGATTAT,0.24 kcal/mol
26,TTTGGCACGTGCAGTA,-0.11 kcal/mol

row,Sequence,relative binding free energy
1,TAATGCACGTGATGGG,0 kcal/mol
2,TGAGTCACGTGTCTAG,0.06 kcal/mol
3,TCGTCCACGTGTGTGG,0.04 kcal/mol
4,AGGGACACGTGGTTGT,-0.06 kcal/mol
5,GTAGACACGTGGAGGT,-0.01 kcal/mol
6,TGAAGCACGTGTGTAG,-0.18 kcal/mol
7,TTAGGCACGTGATGCA,0.07 kcal/mol
8,ATGTGCACGTGAGCCT,0.23 kcal/mol
9,GAAGTCACGTGCGCGG,0.09 kcal/mol
10,TTTACCACGTGTTTAA,0.11 kcal/mol
11,TACTTCACGTGTATGG,0.24 kcal/mol
12,GGGATCACGTGTTGGG,0.17 kcal/mol
13,GTGTACACGTGTGCTT,0.14 kcal/mol
14,TGTACCACGTGGTTAT,-0.2 kcal/mol
15,ATGGTCACGTGGGAGA,0.12 kcal/mol
16,TAGGTCACGTGAGCAG,0.28 kcal/mol
17,TTGGACACGTGGTTTA,0.04 kcal/mol
18,GGGTACACGTGAGGCA,0.3 kcal/mol
19,ATTGGCACGTGATTCT,0.04 kcal/mol
20,TTGTTCACGTGTCTGT,0.23 kcal/mol
21,CTGGCCACGTGAGTAG,0.2 kcal/mol
22,TGATCCACGTGGGGCT,-0.03 kcal/mol
23,TGTTGCACGTGTTGGG,-0.01 kcal/mol
24,GGATCCACGTGTTTAG,0.25 kcal/mol
25,TGGTGCACGTGTAAGG,-0.02 kcal/mol
26,CTTATCACGTGTTTGA,0.03 kcal/mol

row,Sequence,relative binding free energy
1,GTTTTCACGTGGGAAA,0.42 kcal/mol
2,TTTACCACGTGGTTTA,-0.05 kcal/mol
3,GACGGCACGTGTGTGG,-0.04 kcal/mol
4,TCGGGCACGTGATGGC,0.08 kcal/mol
5,CTTGGCACGTGAGCTT,0.11 kcal/mol
6,AATGTCACGTGTGGGG,0.28 kcal/mol
7,GTGGACACGTGAAGGA,0.37 kcal/mol
8,GAGGCCACGTGTATGT,-0.04 kcal/mol
9,AATGGCACGTGGGTTA,-0.2 kcal/mol
10,ATGGACACGTGGTTAT,0.07 kcal/mol
11,TTCGTCACGTGTAAGT,0.05 kcal/mol
12,ATGGTCACGTGGTCTT,0.04 kcal/mol
13,TGTGACACGTGGTTAG,0.04 kcal/mol
14,TTCGTCACGTGGCTGT,0.15 kcal/mol
15,TAATACACGTGAGGTG,0.47 kcal/mol
16,GCATTCACGTGTATTT,0.16 kcal/mol
17,CTTAACACGTGTGCGT,0.09 kcal/mol
18,CAGTGCACGTGGTGTT,-0.08 kcal/mol
19,TTGGTCACGTGAAGCG,0.21 kcal/mol
20,GTGGGCACGTGGTGAG,-0.08 kcal/mol
21,TGCCTCACGTGGTTGC,0.37 kcal/mol
22,GAGGTCACGTGCGGCT,0.11 kcal/mol
23,GCCGCCACGTGAGGGT,0.38 kcal/mol
24,GTTTACACGTGTGGTT,0.23 kcal/mol
25,CGGTGCACGTGCGTGA,-0.04 kcal/mol
26,ATTCGCACGTGGATTA,-0.03 kcal/mol

row,Sequence,relative binding free energy
1,GCTGGCACGTGTGGAG,0.04 kcal/mol
2,GATTACACGTGTCGGG,0.25 kcal/mol
3,GTTGCCACGTGTGATT,0.03 kcal/mol
4,AACAACACGTGGGGAG,0.16 kcal/mol
5,AATAACACGTGTTGGT,-0.07 kcal/mol
6,ATCTGCACGTGGTGCG,-0.14 kcal/mol
7,AGAGTCACGTGAGGGT,0.25 kcal/mol
8,GGTTACACGTGAAGTC,0.42 kcal/mol
9,AGGTGCACGTGTGAAT,0.08 kcal/mol
10,TGGGACACGTGGCGTA,-0.16 kcal/mol
11,CGATTCACGTGTTGAG,0.24 kcal/mol
12,GGTGGCACGTGAGGCT,0.13 kcal/mol
13,TGTGACACGTGTTCGG,-0.09 kcal/mol
14,TTAGGCACGTGGGAAG,-0.08 kcal/mol
15,ACGATCACGTGTTATT,0.29 kcal/mol
16,TGTGTCACGTGCTTGA,0.01 kcal/mol
17,AGTAGCACGTGAGAAG,0.13 kcal/mol
18,AGAGGCACGTGGGTGC,-0.29 kcal/mol
19,GTAAGCACGTGGTCAG,-0.11 kcal/mol
20,GTAGGCACGTGGTAGC,-0.09 kcal/mol
21,TGAGACACGTGGGAGA,0.02 kcal/mol
22,CGAGGCACGTGAGTAG,0.16 kcal/mol
23,ATTGTCACGTGGAGAA,-0.08 kcal/mol
24,GTGTACACGTGGCGGT,0.06 kcal/mol
25,TAGGGCACGTGCGATT,-0.04 kcal/mol
26,TTTTACACGTGGATGC,0.26 kcal/mol

row,Sequence,relative binding free energy
1,TGAGCCACGTGTGGGT,-0.14 kcal/mol
2,TTGGTCACGTGTCGTG,0.08 kcal/mol
3,GGGTCCACGTGTAAGT,0.1 kcal/mol
4,TTTCTCACGTGTGTGA,0.26 kcal/mol
5,TGGTGCACGTGCCGGA,-0.11 kcal/mol
6,GTAGACACGTGATTGG,0.18 kcal/mol
7,GGGGTCACGTGGTAAG,0.17 kcal/mol
8,TCGGTCACGTGGCGGT,0.07 kcal/mol
9,GTCAGCACGTGCTTGT,0 kcal/mol
10,TAGGGCACGTGGTTTG,-0.13 kcal/mol
11,AGTATCACGTGATGTC,0.36 kcal/mol
12,AACGTCACGTGGTATG,0 kcal/mol
13,GTTGTCACGTGTTTTA,0.25 kcal/mol
14,GAGCTCACGTGTTTGG,0.22 kcal/mol
15,TTTATCACGTGGAGGA,0.01 kcal/mol
16,CAGTGCACGTGCTGGT,-0.08 kcal/mol
17,TGGACCACGTGGTATT,-0.06 kcal/mol
18,TGCAACACGTGGAGTT,0.07 kcal/mol
19,GTGGGCACGTGAGCGG,0.14 kcal/mol
20,GCTTTCACGTGAGTTT,0.42 kcal/mol
21,GCAGGCACGTGCGTGG,-0.21 kcal/mol
22,AGTCACACGTGGAGTT,0.06 kcal/mol
23,GTGAGCACGTGGGCAA,-0.2 kcal/mol
24,TTCGGCACGTGGGGGT,-0.17 kcal/mol
25,ATGTGCACGTGTTTTA,-0.03 kcal/mol
26,TGAGGCACGTGCAGAT,-0.15 kcal/mol

row,Sequence,relative binding free energy
1,TGGGCCACGTGTTAGA,0 kcal/mol
2,GTATGCACGTGTCTTA,-0.05 kcal/mol
3,TGATTCACGTGTAAGT,0.15 kcal/mol
4,GTATACACGTGGGGAT,0.03 kcal/mol
5,AGTGTCACGTGGTAAG,0.06 kcal/mol
6,TAATTCACGTGCTGTT,0.32 kcal/mol
7,AGGGCCACGTGGGTGA,-0.2 kcal/mol
8,TCTGACACGTGCGTTT,0.07 kcal/mol
9,GGGATCACGTGGGAGT,0.11 kcal/mol
10,TTAGTCACGTGTTGTT,0.13 kcal/mol
11,ACATTCACGTGGGGAG,0.29 kcal/mol
12,ACAGGCACGTGCTGTG,-0.1 kcal/mol
13,GGTGCCACGTGGTTTA,-0.05 kcal/mol
14,TGATGCACGTGGCGTG,-0.16 kcal/mol
15,TGTGGCACGTGCGGAC,-0.19 kcal/mol
16,GGTTGCACGTGTTGAA,0.1 kcal/mol
17,TTGCTCACGTGAGTAT,0.41 kcal/mol
18,TGCTTCACGTGGAGGT,0.12 kcal/mol
19,TGTTTCACGTGATAAC,0.33 kcal/mol
20,GAATTCACGTGGGTTG,0.3 kcal/mol
21,GTATGCACGTGGTAGT,-0.03 kcal/mol
22,GGGTGCACGTGTAGTG,0.16 kcal/mol
23,TGTTTCACGTGCGAGT,0.23 kcal/mol
24,GAGGGCACGTGGTGGA,0.01 kcal/mol
25,CGGTTCACGTGGGCGC,0.28 kcal/mol
26,ATTTGCACGTGTGTGA,0.04 kcal/mol

row,Sequence,relative binding free energy
1,ATTAACACGTGTAGGA,0.14 kcal/mol
2,TATCGCACGTGGTGGA,0.01 kcal/mol
3,ATTATCACGTGGATTC,0.23 kcal/mol
4,AATTGCACGTGATTAG,0.08 kcal/mol
5,TCGGGCACGTGGTGAG,-0.08 kcal/mol
6,ATACACACGTGGTTTG,-0.13 kcal/mol
7,AGGAGCACGTGCCGGG,-0.13 kcal/mol
8,AATTGCACGTGTAGTA,0.02 kcal/mol
9,AGAGTCACGTGTACGG,0.04 kcal/mol
10,TAGCGCACGTGAGGTT,0.07 kcal/mol
11,GGGTGCACGTGTATTC,0.02 kcal/mol
12,TATTACACGTGATTGA,0.18 kcal/mol
13,TTCGCCACGTGTGGGG,-0.1 kcal/mol
14,GGATTCACGTGCGTTG,0.23 kcal/mol
15,TTTGGCACGTGGGCCG,-0.17 kcal/mol
16,TGGGACACGTGGAAGA,0.04 kcal/mol
17,GGTGTCACGTGGGATT,0.14 kcal/mol
18,GAGGGCACGTGGGTCA,-0.17 kcal/mol
19,GTCAACACGTGGGTTG,-0.09 kcal/mol
20,AGTAACACGTGGATGT,0.02 kcal/mol
21,TTGGTCACGTGAGACG,0.33 kcal/mol
22,TTTATCACGTGAGTTA,0.33 kcal/mol
